In all, about 48,000 compounds went through this assay and about 450 (0.94%) were called active. Roughly 19% stayed inconclusive and do not appear here. The call rests on the fitted dose curve; in most records, active means well fitted inhibition curve with a large enough effect; inconclusive means small, poorly fitted or top-dose-only effect; inactive means no such curve, though single readings can be large or run the other way. Some of the results follow.
test: Primary qHTS for Identification of Small Molecule Inhibitors of Huntingtin Promoter Activity; details: HEK293 HTT promoter firefly luciferase reporter (activity 0% = vehicle and -100% = no light), 24 h; series mostly up to 57.5 µM; activity change, negative = inhibition: at the top concentration; further: nearly all actives have a fitted effect of over 50% in size
In short: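 Luminescence was read after Dual-Glo reagent and a 10 min room-temperature incubation. Values were normalized to vehicle (0% activity) and zero RLU (-100% activity). Reporter HEK293 cells had been exposed to compounds (up to 57.5 uM final) for 24 h.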

Activity change, negative = inhibition, inactive:
CC(=O)CSc1nnc2cc(C)c3cc(C)cc(C)c3n12 -1.93%
CCOc1ccc(CN(C(=O)c2cc(=O)c3cc(C)cc(C)c3o2)C2CCS(=O)(=O)C2)cc1 (stereo unspecified) 3.65%
NC(=O)CC[C@@H]1NC(=O)[C@H](Cc2ccccc2)NC(=O)[C@H](Cc2ccc(O)cc2)NC(=O)CCSSC[C@@H](C(=O)N2CCC[C@H]2C(=O)N[C@@H](CCCN=C(N)N)C(=O)NCC(N)=O)NC(=O)[C@H](CC(N)=O)NC1=O 6.71%
Cc1oc2ncnc(N3CCCCC3)c2c1C(=O)N1CCN(c2cccc(Cl)c2)CC1 -25.2%
CCCN1C(=O)C2(c3ccccc31)c1c(oc3ccc(F)cc3c1=O)C(=O)N2CCCOC(C)C (stereo unspecified) -8.25%
c1coc(-c2nc3n(n2)C2(CCCCC2)[C@@H]2CCCC[C@@H]2N3)c1 -27.8%
CN(C(=O)CSc1nnc(-c2ccccc2F)o1)C1CCCCC1 -19.2%
CCN(C(=O)CSc1nc(-c2ccc(C(C)C)cc2)no1)c1cccc(C)c1 -17%
Cc1ccc(-n2c(-c3ccco3)nc3c(cnn3-c3ccccc3Cl)c2=O)cc1 -8.26%
Cc1cccc(C(=O)Nc2nnc(S(=O)(=O)N(C)c3ccccc3C)s2)c1 -28.5%
COc1ccc(CNC(=O)CCCn2nc(C)c3c(C)n(-c4ccccc4)nc3c2=O)cc1 3.44%
CCCCCCc1ccc(O)cc1O 5.57%
CCn1cc2nc(SCc3cccc(Cl)c3)n(Cc3ccc(C)cc3)c(=O)c2n1 -10.7%
CC(C)c1cnc2c(c1SCC(=O)Nc1cccc(F)c1)c(=O)n(C)c(=O)n2C -17%
O=C(Nc1cccc(F)c1)C1CCN(S(=O)(=O)c2cccc3nsnc23)CC1 -9.69%
CCc1ccc(CN2CCc3nc(N4CCN(CC)CC4)ncc3C2)cc1 -24.2%
CN(C)c1ccc(CNC(=O)CCn2cccn2)cc1 3.76%
Cc1ccc(CCNC(=O)c2ccc3c(c2)N(Cc2cccc(Cl)c2)C(=O)c2ccccc2S3(=O)=O)cc1 -19.9%
Cc1cc(C)cc(OC(C)C(=O)Nc2c(C(=O)c3ccccc3)oc3ccccc23)c1 (stereo unspecified) 0%
c1ccc(CSc2nc3ncccc3[nH]2)cc1 39.6%
CSc1ccc(C2c3c(oc4cc(C)cc(C)c4c3=O)C(=O)N2Cc2ccco2)cc1 (stereo unspecified) 1.97%
CN(C)Cc1ccc(-c2nc3cccc4c3n2CCNC4=O)cc1 -3.52%
O=C1c2[nH]nc(-c3ccccc3O)c2C(c2cccc(OCc3ccccc3)c2)N1CCO (stereo unspecified) -17.3%
CCN(CC)C(=O)Cn1c(=O)n(-c2ccc(Cl)cc2)c(=O)c2c3c(sc21)CCC3 0%
Cc1cn2c(=O)cc(COC(=O)c3cccc(NC(=O)c4ccccc4C)c3)nc2s1 -19.8%
COc1ccc(-n2nc(C)c3c(C(F)(F)F)cc(-c4cccnc4)nc32)cc1 -3.77%
